# Assay results as given in PubChem BioAssay AID1631 (National Center for Advancing Translational Sciences (NCATS), 2009).
# In all, about 260,000 compounds went through this assay and about 890 (0.34%) were called active. The shares of active, inactive and inconclusive entries below differ from those in the screen. The call rests on the fitted dose curve; in most records, active means well fitted activation curve with a large enough effect; inconclusive means small, poorly fitted or top-dose-only effect; inactive means no such curve, though single readings can be large or run the other way. No potency is given beside an inconclusive call; the fits are too rough.
# Molecular target: Pyruvate kinase PKM (Homo sapiens) (UniProt P14618)
# Assay: qHTS Assay for Activators of Human Muscle isoform 2 Pyruvate Kinase; further: nearly all actives have a fitted effect of over 55% in size
# Details: purified PKM2, Kinase-Glo ATP luminescence; Potency: activation; activation: at 57.5 µM (top of the series), 0% is enzyme alone, no compound
# Source text: NIH Chemical Genomics Center [NCGC] Matthew G. Vander Heiden, M.D., Ph.D. [Harvard Medical School, 77 Avenue Louis Pasteur, Boston, MA 02115] MLPCN Grant: 1 R03 MH085679-01 NCGC Assay Overview: Human pyruvate kinase muscle 2 (hPK-M2) enzyme was supplied as a highly purified (>95% pure) preparation from Harvard Medical School and assayed for its ability to generate ATP from ADP using phosphoenolpyruvate (PEP) as a substrate. ATP generation was detected in a coupled reaction by luciferase-mediated luminescence, an ATP-dependent process. […] The enzyme was assayed at an intermediate level of activity to screen for both inhibitors and activators.
# NCGC Assay Protocol Summary: Three uL of substrate mix (at r.t.) in assay buffer (50 mM Imidazole pH7.2, 50 mM KCl, 7 mM MgCl2, 0.01% Tween 20, 0.05% BSA) was dispensed into white solid bottom 1,536 well microtiter plates so that the final concentrations of substrates in the assay were 0.1 mM ADP and 0.5 mM PEP. 23 nL of compound were delivered by a pin tool and 1 uL of enzyme mix in assay buffer (4 degree Celsius) was added. Plates were incubated at room temperature for 1 hour. Two uL of detection mix (Kinase-Glo, Promega; at 4 degree Celsius protected from light) was added and luminescence read by a ViewLux (Perkin Elmer) at 5 second exposure/plate. Data were normalized to the uninhibited and AC100 inhibition (no enzyme). To monitor activation, the first column contained a titration of the activator, NCGC00031955-01 (16-point 1:2 dilutions in duplicate starting at 57 uM) and the first 16 rows of column 4 contained 57 uM of NCGC00031955-01.
# Potency means the concentration at half of the fitted maximal effect; tags describe the fitted curve by direction and shape.
# Chain of UniProt P14618 (P14618 whole entry, looked up, canonical isoform): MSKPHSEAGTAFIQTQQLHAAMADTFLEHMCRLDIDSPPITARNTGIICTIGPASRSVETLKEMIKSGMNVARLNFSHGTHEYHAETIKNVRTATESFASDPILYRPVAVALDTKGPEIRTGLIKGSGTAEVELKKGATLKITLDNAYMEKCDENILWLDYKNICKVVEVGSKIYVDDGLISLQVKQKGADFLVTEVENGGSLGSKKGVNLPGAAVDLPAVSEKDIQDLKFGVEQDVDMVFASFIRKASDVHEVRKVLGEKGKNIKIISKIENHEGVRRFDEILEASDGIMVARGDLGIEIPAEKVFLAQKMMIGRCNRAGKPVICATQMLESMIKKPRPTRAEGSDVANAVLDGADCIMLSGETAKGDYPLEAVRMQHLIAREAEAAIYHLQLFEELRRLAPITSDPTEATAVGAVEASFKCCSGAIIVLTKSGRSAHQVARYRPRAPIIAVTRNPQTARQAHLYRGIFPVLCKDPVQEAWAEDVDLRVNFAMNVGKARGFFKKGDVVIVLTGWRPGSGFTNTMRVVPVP
row,SMILES,Potency
1,COC(=O)C1=C2SC(C)C(=O)N2C(N)=C(C#N)C1c1ccc(OC)c(OC)c1 (stereo not drawn),"inconclusive [rising, full curve, poor fit]"
2,N#CCc1c(C#N)c(N)nc(N2CCN(S(=O)(=O)c3ccccc3)CC2)c1C#N,"inconclusive [rising, partial curve]"
3,Cc1cc2c(c(=O)n1C)C(Cc1ccccc1)C(C#N)=C(N)O2 (stereo not drawn),inactive
4,Cc1ccccc1-c1ncc(CN2CCC(CO)(CCCc3ccccc3)CC2)cn1,"inconclusive [rising, single point]"
5,CC1(C)Cc2c(C#N)c(N3CCN(C(=O)c4ccccc4Cl)CC3)nc(-c3ccco3)c2CS1,"inconclusive [rising, single point]"
6,Cc1cccc(NC(=O)CSc2ccc(-c3cccnc3)nn2)c1,"inconclusive [rising, partial curve]"
7,CCCCOc1ccc(Cc2cnc(N)nc2N)cc1,"inconclusive [rising, single point]"
8,CC(=O)c1ccc(NC(=S)NC2CCCC(C)C2C)cc1 (stereo not drawn),"inconclusive [rising, single point]"
9,COc1ccc(F)cc1COc1nc(C)nc2ccccc12,"inconclusive [rising, partial curve]"
10,Cc1n[nH]c(=O)c2c(NC(=O)CSc3nc4ccccc4c(=O)n3CCCO)oc(C)c12,"inconclusive [rising, partial curve]"
11,COc1c(O)ccc2c1CN1CCc3cc4c(cc3C1C2)OCO4 (stereo not drawn),"inconclusive [rising, full curve]"
12,COc1ccc(S(=O)(=O)Nc2ccc(F)cc2)c(C)c1C,"inconclusive [rising, single point]"
13,Nc1nonc1-c1nc2ccccc2n1CC(=O)N/N=C/c1ccc(-c2cccc(C(=O)O)c2)o1,"inconclusive [rising, single point]"
14,COc1ccc(S(=O)(=O)N2CCCN(CC(=O)C(C)(C)C)CC2)cc1,"inconclusive [rising, single point]"
15,Cc1cc(C)c2c(N)c(S(=O)(=O)c3ccccc3)sc2n1,"inconclusive [rising, full curve]"
16,Cc1nc2sccn2c(=O)c1S(=O)(=O)N1CCN(c2ccc(F)cc2)CC1,"inconclusive [rising, single point]"
17,CC(=O)Oc1ccc(N2C(=O)C3C4C=CC(CO)(O4)C3C2=O)cc1 (stereo not drawn),"inconclusive [rising, single point]"
18,COc1ccc(Br)cc1S(=O)(=O)Nc1ncccc1C,active: 6.31 µM
19,Cc1cccc2cc(C#N)c(NCCNS(=O)(=O)c3ccccc3)nc12,"inconclusive [rising, partial curve]"
20,COc1ccc([N+](=O)[O-])cc1NC(=O)c1ccccc1SC,"inconclusive [rising, single point]"
21,Cc1nc(-c2ccc(S(=O)(=O)Nc3cccc(Cl)c3)cc2)co1,active: 7.94 µM
22,CC(C)C(=O)Nc1ccc2c(c1)nc1n2CCSC1,"inconclusive [rising, partial curve]"

row,SMILES,Potency
1,CCOC(=O)CSc1nnc(Cc2ccccc2)n1-c1ccc(C)cc1,"inconclusive [rising, single point]"
2,CC1=C/C(=N\OS(=O)(=O)c2ccccc2)C=CC1=O,"inconclusive [rising, partial curve]"
3,O=C(c1cc(=O)[nH]c2ccccc12)N1CCN(S(=O)(=O)c2ccc3ccccc3c2)CC1,"inconclusive [rising, partial curve]"
4,O=C(N/N=C/c1cccs1)c1ccc(-n2cccc2)cc1,inactive
5,Cc1ccc(OCC(=O)NCCNC(=O)COc2ccc(C)cc2)cc1,inactive
6,Cc1ccc(-c2cc(C(=O)NCc3ccco3)c3ccccc3n2)o1,"inconclusive [rising, partial curve]"
7,N#CC1=C(N)C2=CCCC[C@H]2[C@H](c2cccc(F)c2)C1(C#N)C#N,inactive
8,O=C1COc2ccc(S(=O)(=O)Nc3ccc4c(c3)OCO4)cc2N1,"inconclusive [rising, partial curve]"
9,O=S(=O)(NC1CC1)c1ccc(S(=O)(=O)N2CCc3ccccc32)cc1,"inconclusive [rising, partial curve]"
10,CCCCc1ccc(/C=C2\C(=O)c3ccccc3C(O)=C2C(=O)OCC)cc1,"inconclusive [rising, partial curve]"
11,COc1ccccc1N1CCN(C(=O)CN(c2ccccc2OC)S(=O)(=O)c2ccccc2)CC1,inactive
12,CCN(CC)CCn1c(C)nc2ccccc21,"inconclusive [rising, partial curve]"
13,Cc1cc(C)nc(SCc2ccc(C(=O)O)o2)n1,"inconclusive [rising, single point]"
14,O=C(C1CC1)N1CCc2cc(S(=O)(=O)NCC3COc4ccccc4O3)ccc21 (stereo not drawn),"inconclusive [rising, partial curve]"
15,Cc1ccc(-n2ccc(=O)c(-c3ccnc(SCc4cccc(Cl)c4)n3)n2)cc1,inactive
16,O=C(Cc1cccs1)N1CCN=C1SCc1ccc(F)cc1,"inconclusive [rising, partial curve, poor fit]"
17,O=C(c1ccc(S(=O)(=O)NCc2ccco2)cc1)N1CCN(Cc2ccccc2)CC1,active: 7.94 µM
18,c1coc(-c2nc3ccccc3nc2-c2ccco2)c1,"inconclusive [rising, single point]"
19,COC(=O)CCN(C1CCCCC1)S(=O)(=O)c1ccc(S(=O)(=O)N2CCCCC2)cc1,active: 28.2 µM
20,O=C(CSc1ncn[nH]1)N1CCN(S(=O)(=O)c2ccc(Cl)cc2)CC1,"inconclusive [rising, partial curve]"
21,O=C(NC(NNc1ccc([N+](=O)[O-])cc1)(C(F)(F)F)C(F)(F)F)c1ccc(F)cc1,"inconclusive [rising, partial curve]"
